From PubChem BioAssay AID485294 (National Center for Advancing Translational Sciences (NCATS), 2010)
Screen size: about 370,000 compounds; about 150 (0.041%) were called active. Inconclusive means that the source gave no clear call. Such entries were picked first, then a sample of the others. Calls follow the shape of the dose curve; as a rule, active = well fitted inhibition curve with a large enough effect; inconclusive = small, poorly fitted or top-dose-only effect; inactive = flat fitted curve, though single readings scatter. Potencies of inconclusive entries are left out as doubtful fits.

molecular target: Beta-lactamase (Escherichia coli (strain K12)) (UniProt P00811); experiment: qHTS Inhibitors of AmpC Beta-Lactamase (assay with detergent); conditions: AmpC hydrolysis of nitrocefin, absorbance 480 nm, 0.01% Triton; activity change, negative = inhibition: at 114 µM (top of the series); also: nearly all actives have a fitted effect of over 25% in size;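 as to activity change, negative = inhibition: 0% = no-compound wells and -100% = no-enzyme wells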
In short: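 AmpC (5.3 nM in the dispensed reagent) in 20 mM phosphate pH 7.0 with 0.01% (detergent screen) or 0.0001% Triton X-100 was preincubated with compounds for 15 min at room temperature. Nitrocefin was then added from an 800 uM solution, and hydrolysis was followed at 480 nm.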
Potency is read from the fitted curve at half-maximal effect; tags tell the direction and shape of the fitted curve.

Chain of UniProt P00811 (P00811 whole entry, looked up): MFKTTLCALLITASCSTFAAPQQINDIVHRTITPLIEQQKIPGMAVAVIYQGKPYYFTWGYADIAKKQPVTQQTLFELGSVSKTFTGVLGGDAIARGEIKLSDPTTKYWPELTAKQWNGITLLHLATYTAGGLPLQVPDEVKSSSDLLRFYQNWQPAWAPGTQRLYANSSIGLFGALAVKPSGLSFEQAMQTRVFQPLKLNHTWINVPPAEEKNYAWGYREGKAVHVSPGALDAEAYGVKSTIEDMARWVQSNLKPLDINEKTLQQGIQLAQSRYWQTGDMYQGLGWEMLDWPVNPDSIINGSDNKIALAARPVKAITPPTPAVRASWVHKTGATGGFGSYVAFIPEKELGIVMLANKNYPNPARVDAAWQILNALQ

| Compound | Potency | activity change, negative = inhibition |
| --- | --- | --- |
| COCCN(C(=O)c1ccc(NC2CC2)c([N+](=O)[O-])c1)c1c(N)n(CC(C)C)c(=O)[nH]c1=O | inconclusive [inhibitor, full curve, poor fit] |  |
| O=C(CSCc1ccccc1)N1CCN(C(=O)c2ccco2)CC1 |  | inactive: -1.91% |
| CCc1cc(C(=O)NC2CCCc3c2cnn3-c2cccc(C)c2C)n(C)n1 (stereo unspecified) | inconclusive [inhibitor, full curve, poor fit] |  |
| O=C(COC(=O)c1n[nH]c(=O)c2ccccc12)c1ccccc1 | inconclusive [inhibitor, full curve, poor fit] |  |
| COc1ccc(CCN(C)CCN2C(=O)c3ccccc3C2=O)cc1OC | inconclusive [inhibitor, full curve] |  |
| CCOc1cccc(CNCCCSc2ncccn2)c1 | inconclusive [inhibitor, full curve, poor fit] |  |
| CC(C)CCN1CCN(Cc2cc3ccccc3[nH]2)CC1CCO (stereo unspecified) | inconclusive [inhibitor, full curve] |  |
| O=C(Nc1ccc(Cl)cc1Cl)c1cc(S(=O)(=O)N2CCC3(CC2)OCCO3)ccc1F |  | inactive: 2.48% |
| O=C(NCCc1ccccc1)C1(S(=O)(=O)c2ccc(Cl)cc2)CC1 |  | inactive: 0.352% |
| CCCN1/C(=C2/SC(=S)N(CC)C2=O)C=Cc2ccccc21 | inconclusive [inhibitor, single point] |  |
| Cc1cc(Nc2cccc(C(F)(F)F)c2)n2nc(C)nc2n1 |  | inactive: 3.46% |
| Cc1cc(=O)oc2cc(OCC(=O)NCCc3c[nH]c4ccc(F)cc34)ccc12 |  | inactive: 2.22% |
| CCOCCCNC(=O)c1ccc2c(c1)NC(=O)C(CS(=O)(=O)Cc1ccc(F)cc1Cl)N2 (stereo unspecified) |  | inactive: -5.61% |
| CC(OC(=O)C1CCCCC1)c1nc2ccccc2[nH]1 (stereo unspecified) | inconclusive [inhibitor, full curve, poor fit] |  |
| Cc1cccc(/C(N)=N/OC(=O)c2ccccc2Cl)c1 | inconclusive [inhibitor, full curve, poor fit] |  |
| Cc1ccc(S(=O)(=O)N2[C@@H](c3ccc(Cl)cc3)C(C(=O)O)=CC[C@H]2c2ccc(C(C)C)cc2)cc1 | inconclusive [inhibitor, single point] |  |
| O=C(c1ccccc1)c1ccc(OCCOCCN2CCN(Cc3ccccc3)CC2)cc1 |  | inactive: 0.898% |
| Cc1ccc(-n2nnnc2Sc2nc([N+](=O)[O-])nn2C)cc1 | inconclusive [inhibitor, single point] |  |
| Cc1ccc(-c2csc3ncnc(NCCN4CCOCC4)c23)cc1 | inconclusive [inhibitor, partial curve] |  |
| COc1ccc2c(c1OC)C(=O)N(c1ccc(C)cc1)C2 |  | inactive: 2.73% |
| Clc1ncccc1-c1nnn(-c2ccccc2Br)n1 |  | inactive: 4.44% |
| O=C(NCc1ccc(Cl)cc1)c1ccc2ccccc2n1 | inconclusive [inhibitor, full curve, poor fit] |  |
| CC1CN(S(=O)(=O)c2cccc(C(=O)N(CCc3ccccc3)Cc3ccccc3)c2)CC(C)O1 (stereo unspecified) |  | inactive: 4.76% |

| Compound | Potency | activity change, negative = inhibition |
| --- | --- | --- |
| Cc1c(NC(=O)c2ccc(Br)s2)c(=O)n(-c2ccccc2)n1C | inconclusive [inhibitor, full curve] |  |
| COc1cccc(C(=O)Nc2cccc(C(=O)N3CCOCC3)c2)c1 | inconclusive [inhibitor, full curve] |  |
| CCNS(=O)(=O)c1ccc(Br)c(C(=O)OC(C)C(=O)NCC2CCCCC2)c1 (stereo unspecified) | inconclusive [inhibitor, full curve, poor fit] |  |
| CCNc1nc2nonc2nc1NCC | inconclusive [inhibitor, full curve, poor fit] |  |
| Nc1cc(S(=O)(=O)N2CCOCC2)ccc1Oc1cccc(Br)c1 |  | inactive: -0.939% |
| O=[N+]([O-])c1cc([N+](=O)[O-])c(Oc2c(F)cccc2F)cc1NN1CCCCC1 | inconclusive [inhibitor, full curve, poor fit] |  |
| Nc1nc(-c2ccccc2)cs1 |  | inactive: 0.118% |
| COc1cccc(CSc2nnc(-c3ccc(F)cc3)o2)c1 | inconclusive [inhibitor, full curve] |  |
| O=C1[C@H]2[C@H]3[C@H](O)[C@H](O)C/C(=N\OC[C@@H](O)COCc4ccco4)[C@@H]3CC[C@H]2C(=O)N1c1ccc(F)cc1F | inconclusive [inhibitor, full curve] |  |
| CCCCOc1ccc(Cc2cnc(N)nc2N)cc1 |  | inactive: 1.23% |
| CCN(CC)S(=O)(=O)c1cc(NC(=O)C2CC(=O)N(Cc3ccccc3)C2)ccc1Cl (stereo unspecified) | inconclusive [inhibitor, full curve, poor fit] |  |
| O=C(NCc1ccco1)c1ccccc1NS(=O)(=O)c1ccc2c(c1)OCCO2 |  | inactive: -1.58% |
| O=C1CCC(C(=O)N2CCc3ccccc3C2)CN1CCCN1CCOCC1 (stereo unspecified) |  | inactive: 3.37% |
| Cc1cccc(C(=O)O/N=C(\N)c2ccccn2)c1 |  | inactive: -3.48% |
| Cc1ccc(CCNC(=O)c2cn(C)c3ccc(S(=O)(=O)N(C)C4CCCCC4)cc3c2=O)cc1 |  | inactive: 0.813% |
| COc1cc(Br)cc2cc(C(=O)N3CCN(C(=O)c4ccco4)CC3)c(=O)oc12 | inconclusive [inhibitor, full curve, poor fit] |  |
| COc1ccc(-n2c(C)c(C(C)=O)c3cc(OC(=O)c4ccc(C)cc4)ccc32)cc1 |  | inactive: 9.41% |
| CCOC(=O)c1ccc(OCC2c3cc(OC)c(OC)cc3CCN2C(=O)c2ccc(S(=O)(=O)N3CCCC3)cc2)cc1 (stereo unspecified) |  | inactive: 5.1% |
| CCN(CC)c1ccc(/C=N/n2c(C)nc3ccccc3c2=O)cc1 | inconclusive [inhibitor, full curve] |  |
| Cn1c(-c2sccc2OCc2ccc(Cl)cc2Cl)n[nH]c1=S | inconclusive [inhibitor, full curve, poor fit] |  |
| C[C@H]1CN=C(N(C)C)N1CCCC1CCCCC1 | inconclusive [inhibitor, partial curve, poor fit] |  |
| CCCNC(=O)CSc1nc2ccccc2nc1Cc1ccc(Cl)cc1 |  | inactive: -1.98% |
| Cc1cc(C(=O)Nc2ccccc2N2CCOCC2)ccc1[N+](=O)[O-] | inconclusive [inhibitor, partial curve] |  |
